Where “and” joins values, the source holds several entries; their conditions need not be identical. Equal entries are not always repeated. This list was built around the results that the source calls inconclusive (neither active nor inactive); the mix of calls is not that of the screen. For some of these results: A potency beside an inconclusive call is a rough fit, not a confirmed value. Calls of active or inactive are those of the source. The call rests on the fitted dose curve; in most records, active means well fitted curve in the direction sought with a large enough effect; inconclusive means small, poorly fitted or top-dose-only effect, or another doubt; inactive means no such curve, though single readings can be large; an effect the other way counts as inactive or inconclusive.
Experiments:
CRL-7250 = normal cell line; experiment: Cytotoxic Profiling of Annotated Libraries Using Quantitative High-Throughput Screening (AID 1296008); details: Five cell lines viability, CellTiter-Glo ATP luminescence, 48-72 h; max response: stronger effect = lower value; further: nearly all actives have a fitted effect of over 60% in size; on max response: on the % scale 0 is the no-effect control and ±100 the full control effect
Outline: (§1)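 Compounds were pin-transferred onto cells and incubated 48 or 72 hr at 37 degree Celsius, 95% humidity. CellTiter-Glo was added, plates sat 10 min at room temperature, then ATP-coupled luminescence was imaged as the viability read-out.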

HEK293 = experiment: as above; details: Five cell lines viability, CellTiter-Glo ATP luminescence, 48-72 h; max response: stronger effect = lower value
Outline: as §1

HaCat = experiment: as above; details: Five cell lines viability, CellTiter-Glo ATP luminescence, 48-72 h; max response: stronger effect = lower value
Outline: as §1

KB-3-1 = experiment: as above; details: Five cell lines viability, CellTiter-Glo ATP luminescence, 48-72 h; max response: stronger effect = lower value
Outline: as §1

NIH3T3 = experiment: as above; details: Five cell lines viability, CellTiter-Glo ATP luminescence, 48-72 h; max response: stronger effect = lower value
Outline: as §1

[1] = qHTS assay to identify inhibitors of the type 1 interferon - major histocompatibility complex class I in skeletal muscle: Counter screen cell viability and HiBit confirmation (AID 1347412); details: iHSKM muscle cells + IFN-b, HiBiT or CellTiter-Glo, 24 h; for Potency: HiBiT; on activity change, negative = inhibition: on the % scale 0 is the no-effect control and ±100 the full control effect; on all read-outs here: nearly all actives have a fitted effect of over 60% in size
Outline: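 HLA-B*08:01–HiBiT knock-in immortalized human myoblasts (C25cl48) stimulated with 4.0 ng/ml human IFN-beta and dosed with compound in a 12-point 1:3 titration (top final 46 uM). After 24 hrs at 37 C, HiBiT lytic luminescence or CellTiter Glo ATP read out.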

CAOV3 = experiment: Primary qHTS to identify gynecologic anti-cancer compounds using libraries of approved drugs and bioactive compounds (AID 1345084); details: Gynecologic cancer cell panel viability, ATPlite luminescence, 48 h; series mostly up to 57.5 µM; further: nearly all actives have a fitted effect of over 55% in size; on activity change, negative = cytotoxicity: on the % scale 0 is the no-effect control and ±100 the full control effect
Outline: (§2)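 Cytotoxicity screen measuring ATP content by luciferase luminescence. Each compound is applied at five concentrations for 48 h at 37 C with 5% CO2.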

CASKI = experiment: as above; details: Gynecologic cancer cell panel viability, ATPlite luminescence, 48 h; activity change, negative = cytotoxicity: at 57.5 µM (top of the series)
Outline: as §2

MKL-2 = experiment: qHTS assay to identify novel small-molecules to repurpose for Merkel cell carcinoma treatment (AID 1296009); details: MCC and control cell lines, CellTiter-Glo viability, 72 h; series mostly up to 46 µM; further: nearly all actives have a fitted effect of over 60% in size
Outline: (§3)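 qHTS format: cells treated with library compounds in DMSO across 8 (NPC) or 11 (MIPE) concentrations. Readout after 72 hr at 37 degree celsius was CellTiter-Glo luminescence.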

UISO = experiment: as above; details: MCC and control cell lines, CellTiter-Glo viability, 72 h; series mostly up to 46 µM
Outline: as §3

WaGa = experiment: as above; details: MCC and control cell lines, CellTiter-Glo viability, 72 h; series mostly up to 46 µM
Outline: as §3

MCC-13 = experiment: as above; details: MCC and control cell lines, CellTiter-Glo viability, 72 h; series mostly up to 46 µM
Outline: as §3

MCC-26 = experiment: as above; details: MCC and control cell lines, CellTiter-Glo viability, 72 h; series mostly up to 46 µM
Outline: as §3

MKL-1 = experiment: as above; details: MCC and control cell lines, CellTiter-Glo viability, 72 h; series mostly up to 46 µM
Outline: as §3

astro = experiment: Drug repurposing screens with cells derived from glioblastoma tumor samples (AID 1345199); details: viability, ATP luminescence, 48 h; activity, negative = cell killing: at 45.9 µM (top of the series); further: nearly all actives have a fitted effect of over 40% in size
Outline: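 Four patient lines of CD133+ GBM neurospheres were screened at several concentrations; hits were retested in those lines plus three slower-growing GBM lines, using 48-hour treatment and ATP-based viability.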

C33A = experiment: Primary qHTS to identify gynecologic anti-cancer compounds using libraries of approved drugs and bioactive compounds (AID 1345084); details: Gynecologic cancer cell panel viability, ATPlite luminescence, 48 h; series mostly up to 57.5 µM; further: nearly all actives have a fitted effect of over 55% in size; on activity change, negative = cytotoxicity: on the % scale 0 is the no-effect control and ±100 the full control effect
Outline: as §2

Es-2 = experiment: as above; details: Gynecologic cancer cell panel viability, ATPlite luminescence, 48 h; series mostly up to 57.5 µM
Outline: as §2

HeLa = experiment: as above; details: Gynecologic cancer cell panel viability, ATPlite luminescence, 48 h; series mostly up to 57.5 µM
Outline: as §2
Potency means the concentration at half of the fitted maximal effect; tags describe the fitted curve by direction and shape.

In the case of `CC(C)(O)CC(=O)NCCn1ccc2ncnc(Nc3ccc(Oc4cccc(C(F)(F)F)c4)c(Cl)c3)c21`, the Potency (CRL-7250) is reported as inconclusive: 16.6 µM [inhibitor, partial curve, poor fit] and inconclusive: 16.4 µM [inhibitor, partial curve], the Potency (HEK293) is reported as active: 16.6 µM and the Potency (HaCat) is reported as active: 372 nM and active: 3.66 µM. For the same compound, the Potency (KB-3-1) was inconclusive: 33.2 µM [inhibitor, single point] and inconclusive: 29.1 µM [inhibitor, single point], the Potency (NIH3T3) was inconclusive: 37.2 µM [inhibitor, single point] and inconclusive: 14.6 µM [inhibitor, partial curve, poor fit] and the Potency [1] was inconclusive: 31.3 µM [inhibitor, single point]. For the same compound, the Potency (CAOV3) was inconclusive: 39.8 µM [cytotoxic, single point] and the Potency (CASKI) was inconclusive: 28.2 µM [cytotoxic, partial curve].
With `O=C(c1cc(Cc2n[nH]c(=O)c3ccccc23)ccc1F)N1CCN(C(=O)C2CC2)CC1` the Potency (CRL-7250) was active: 9.35 µM and inconclusive: 18.4 µM [inhibitor, partial curve], the Potency (HEK293) was inconclusive: 4.18 µM [inhibitor, full curve] and the max response (HEK293) was inactive: -77.6%. The Potency (HaCat) was inconclusive: 16.4 µM [inhibitor, partial curve], the Potency (MKL-2) was inconclusive: 0.0935 µM [inhibitor, full curve, poor fit] and the Potency (UISO) was active: 16.6 µM. For the same compound, the Potency (WaGa) was inconclusive: 18.7 µM [inhibitor, partial curve].
For `CCN(CC)CCNc1ccc(CO)c2sc3ccccc3c(=O)c12`, the Potency (CRL-7250) was active: 18.8 µM, the Potency (HEK293) was active: 7.5 µM and the Potency (HaCat) was inconclusive: 23.7 µM [inhibitor, single point]. For the same compound, the Potency (KB-3-1) was inconclusive: 29.1 µM [inhibitor, single point], the Potency (MCC-13) was active: 26.6 µM and the Potency (MCC-26) was inconclusive: 26.6 µM [inhibitor, single point]. The Potency (MKL-1) was active: 10.6 µM, the Potency (MKL-2) was active: 3.35 µM and the Potency (UISO) was active: 5.96 µM. The Potency (astro) was inconclusive: 10 µM [inhibitor, partial curve], the Potency (C33A) was inconclusive: 39.8 µM [cytotoxic, single point] and the Potency (CAOV3) was active: 22.4 µM. For the same compound, the Potency (CASKI) was inconclusive: 39.8 µM [cytotoxic, single point] and the Potency (Es-2) was inconclusive: 39.8 µM [cytotoxic, single point].
For `COc1ccc(CCN2CCC(Nc3nc4ccccc4n3Cc3ccc(F)cc3)CC2)cc1`, the Potency (CRL-7250) was inconclusive: 33.5 µM [inhibitor, single point], the Potency (HEK293) was active: 9.44 µM and the Potency (HaCat) was inconclusive: 7.5 µM [inhibitor, partial curve, poor fit]. For the same compound, the Potency (KB-3-1) was inconclusive: 29.1 µM [inhibitor, single point], the Potency (MCC-26) was inconclusive: 23.7 µM [inhibitor, single point] and the Potency (MKL-1) was inconclusive: 29.9 µM [inhibitor, single point]. The Potency (astro) was inconclusive: 14.1 µM [inhibitor, single point], the Potency (C33A) was inconclusive: 35.5 µM [cytotoxic, single point] and the Potency (CAOV3) was inconclusive: 35.5 µM [cytotoxic, single point]. For the same compound, the Potency (CASKI) was inconclusive: 31.6 µM [cytotoxic, single point], the Potency (Es-2) was inconclusive: 39.8 µM [cytotoxic, single point] and the Potency (HeLa) was active: 28.2 µM.
With `O=C(Nc1cccc(C(F)(F)F)c1)Nc1cc(S(=O)(=O)NC2CC2)ccc1-c1ccsc1` the Potency (CRL-7250) was inconclusive: 29.1 µM [inhibitor, single point], the Potency (HEK293) was inconclusive: 29.6 µM [inhibitor, single point] and the Potency (KB-3-1) was inconclusive: 37.2 µM [inhibitor, single point] and inconclusive: 20.6 µM [inhibitor, single point]. The Potency (C33A) was “inactive”.
For `COc1cc2ncnc(Nc3cccc(Cl)c3)c2cc1OC`, the Potency (CRL-7250) was active: 0.187 µM, the Potency (HEK293) was active: 0.372 µM and the Potency (KB-3-1) was inconclusive: 29.1 µM [inhibitor, single point]. For the same compound, the Potency (UISO) was inconclusive: 29.6 µM [inhibitor, single point], the Potency (WaGa) was inconclusive: 18.7 µM [inhibitor, partial curve, poor fit] and the Potency [1] was inconclusive: 27.9 µM [inhibitor, partial curve]. The activity change, negative = inhibition ([1]; Viability, at 45.9 µM (top of the series)) was inactive: -9.03%, the Potency (CAOV3) was inconclusive: 1 µM [cytotoxic, full curve] and the Potency (CASKI) was “inactive”. The Potency (HeLa) was “inactive”.
